From PubChem BioAssay (NCATS)
The shares of active, inactive and inconclusive entries below differ from those in the screen. Where a call stands in place of a potency, no number is given. For part of these data: Potencies of inconclusive entries are doubtful fits and often do not repeat. Activity calls are given as the source filed them. Calls follow the shape of the dose curve; as a rule, active = well fitted inhibition curve with a large enough effect; inconclusive = small, poorly fitted or top-dose-only effect; inactive = no such curve, though single readings can be large or run the other way.

How the values were obtained:
[1] = molecular target: Retinaldehyde dehydrogenase 3 (Homo sapiens) (UniProt P47895); assay: qHTS for Inhibitors of the Aldehyde Dehydrogenase Family (ALDH1A3) Primary screen (AID 2061315); settings: ALDH inhibition qHTS; activity change, negative = inhibition: at 56 µM (top of the series) unless noted; also: potency is read from the fitted curve at half-maximal effect
[2] = molecular target: Aldehyde dehydrogenase 1A1 (Homo sapiens) (UniProt P00352); assay: qHTS for Inhibitors of the Aldehyde Dehydrogenase Family (ALDH1A1) Confirmatory screens (AID 2061316); settings: ALDH inhibition qHTS; activity change, negative = inhibition: at 47.3 µM (top of the series); series mostly up to 47.3 µM; also: potency is read from the fitted curve at half-maximal effect; nearly all actives have a fitted effect of over 65% in size
[3] = BET inhibitor-based combinations targeting novel dependencies in MECOM-rearranged (r) AML: SET-2 cell line (AID 2202231); settings: SET-2 AML cells viability, CellTiter-Glo luminescence, 48 h; viability: stronger effect = lower value, concentration not given here; also: nearly all actives have a fitted effect of over 35% in size; also: potency is read from the fitted curve at half-maximal effect
Summary of the method: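 Readout: CellTiter-Glo luminescence. Exposure: 48 h, 11 concentrations, 500 cells/well. Metric: AUC and within-line Z-AUC after DMSO/empty-well normalization.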

[4] = BET inhibitor-based combinations targeting novel dependencies in MECOM-rearranged (r) AML: HNT-34 cell line (AID 2202234); settings: HNT-34 AML viability, CellTiter-Glo luminescence, 48 h; series mostly up to 46 µM; also: nearly all actives have a fitted effect of over 35% in size; also: potency is read from the fitted curve at half-maximal effect
Summary of the method: (§1)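 Seeding density was 500 cells/well, and drug exposure lasted 48 hr under standard culture conditions. Read-out used CellTiter-Glo reagent with a 15 min room-temperature incubation before luminescence measurement; AUC and Z-AUC summarize the normalized responses.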

[5] = BET inhibitor-based combinations targeting novel dependencies in MECOM-rearranged (r) AML: UCSD-AML1 cell line (AID 2202235); settings: UCSD-AML1 AML cells viability, CellTiter-Glo, 48 h; viability (% of control): at 46 µM (top of the series); also: nearly all actives have a fitted effect of over 40% in size; also: potency is read from the fitted curve at half-maximal effect
Summary of the method: as §1

[6] = BET inhibitor-based combinations targeting novel dependencies in MECOM-rearranged (r) AML: MV-4-11 cell line (AID 2202233); settings: MV-4-11 AML viability, CellTiter-Glo luminescence, 48 h; viability, % of control: at 46 µM (top of the series) unless noted; also: nearly all actives have a fitted effect of over 45% in size
Summary of the method: as §1
Tags tell the direction and shape of the fitted curve.

**Q.** For `COc1cc(/C=C/CO[C@@H]2O[C@H](CO)[C@@H](O)[C@H](O)[C@H]2O)cc(OC)c1O[C@@H]1O[C@H](CO)[C@@H](O)[C@H](O)[C@H]1O`, which Potency [1] is on record?
**A.** The Potency was inconclusive: 8.91 µM [inhibitor, single point].

**Q.** With `COc1ccccc1Oc1c(NS(=O)(=O)c2ccc(C)cn2)nc(-c2ccncc2)nc1OC` as the molecule, how does the Potency [1] read?
**A.** Its Potency is “inactive”.

**Q.** With `COc1ccccc1-c1nc(-c2cccc(C(=O)O)c2)no1` as the molecule, how does the Potency [1] read?
**A.** The Potency was inconclusive: 0.355 µM [inhibitor, full curve, poor fit].

**Q.** For `O=C(OCC1=CC(O)C2C=CO[C@@H](O[C@@H]3O[C@H](CO)[C@@H](O)[C@H](O)[C@H]3O)C12)c1ccccc1` (stereo partly drawn), which Potency [1] is on record?
**A.** The Potency was “inactive”.

**Q.** Which Potency [1] does the source give for `COc1cc(CC(COC2OC(CO)C(O)C(O)C2O)c2cc(/C=C/CO)cc(OC)c2O)ccc1O` (stereo not drawn) here?
**A.** Its Potency is inconclusive: 12.6 µM [inhibitor, single point].

**Q.** With `COC(=O)c1ccc(OC)cc1O[C@@H]1O[C@H](CO[C@@H]2OC[C@@H](O)[C@H](O)[C@H]2O)[C@@H](O)[C@H](O)[C@H]1O` as the molecule, how does the Potency [1] read?
**A.** The Potency was “inactive”.

**Q.** With `C=C1/C(=C/C=C2\CCC[C@]3(C)[C@@H]([C@H](C)/C=C/[C@H](O)C4CC4)CC[C@@H]23)C[C@@H](O)C[C@@H]1O` as the molecule, how does the Potency [1] read?
**A.** Its Potency is inconclusive: 17.8 µM [inhibitor, single point].

**Q.** For `Cc1csc(CNc2ncnc3ccc(-c4ccc5c(c4)OCO5)cc23)n1`, which Potency [1] is on record?
**A.** Its Potency is “inactive”.

**Q.** With `CC(C)(O)C1OC1C1=CC(=O)C2(C)OC2C1O` (stereo not drawn) as the molecule, how does the Potency [1] read?
**A.** The Potency was inconclusive: 15.8 µM [inhibitor, partial curve].

**Q.** With `O=C(O)c1ccc(-c2noc(-c3ccc(Cl)cc3)n2)cc1` as the molecule, how does the Potency [1] read?
**A.** Its Potency is inconclusive: 3.55 µM [inhibitor, full curve].

**Q.** Which Potency [1] does the source give for `CC[N+]1(C/C2=C/CCCCCC2)CCC(NC(=O)C2c3cc(Cl)ccc3Oc3ccc(Cl)cc32)CC1` (stereo not drawn) here?
**A.** The Potency was “inactive”.

**Q.** For `CCCCC1CCC(C(=O)Nc2ccc(S(=O)(=O)Nc3cc(C)on3)cc2)CC1` (stereo not drawn), which Potency [1] is on record?
**A.** Its Potency is “inactive”.

**Q.** With `Cn1cc(P(=O)(c2ccccc2)c2ccccc2)c2ccccc21` as the molecule, how does the Potency [1] read?
**A.** Its Potency is “inactive”.

**Q.** Which Potency [1] does the source give for `O=C(O)c1cccc(-c2noc(-c3ccc(F)cc3)n2)c1` here?
**A.** The Potency was inconclusive: 0.316 µM [inhibitor, full curve, poor fit].

**Q.** Which Potency [1] does the source give for `O=C1OC(c2ccc(O)cc2)C(O)=C1Cc1ccccc1` (stereo not drawn) here?
**A.** Its Potency is “inactive”.

**Q.** Which Potency [1] does the source give for `C[C@]12C=CC(=O)C=C1CC[C@@H]1[C@@H]2[C@@H](O)C[C@@]2(C)[C@H]1CC[C@]2(O)C(=O)COC(=O)CCC(=O)O` here?
**A.** The Potency was “inactive”.

**Q.** For `OCC(Cc1ccccc1)Nc1nc(Oc2ccc3c(c2)CCC3)nc2c1ncn2Cc1ccc(-c2ccccc2)cc1` (stereo not drawn), which Potency [1] is on record?
**A.** Its Potency is “inactive”.

**Q.** Which Potency [1] does the source give for `COC(=O)c1cc(OC)cc(OC)c1C(=O)c1c(OC)cc2c(c1O)C1CCC(O)C(C)(O2)O1` (stereo not drawn) here?
**A.** The Potency was “inactive”.

**Q.** With `FC(F)(F)c1ccccc1-c1nc(NCc2ccc(-c3cccnc3)cc2)c2ccccc2n1` as the molecule, how does the Potency [2] read?
**A.** Its Potency is inconclusive: 28.3 µM [inhibitor, partial curve, poor fit].

**Q.** With `OCc1ccc(-c2ccc(-c3ccc(CO)s3)o2)s1` as the molecule, how does the Potency [1] read?
**A.** Its Potency is inconclusive: 5.01 µM [inhibitor, partial curve, poor fit].

**Q.** What about the Potency [3] of the same molecule?
**A.** Its Potency is inconclusive: 33.2 µM [inhibitor, single point].

**Q.** And the Potency [4]?
**A.** The Potency was inconclusive: 33.2 µM [inhibitor, single point].

**Q.** What about the Potency [5] of the same molecule?
**A.** Its Potency is inconclusive: 29.5 µM [inhibitor, single point].

**Q.** Which Potency [1] does the source give for `CCCc1nn(C)c2c(=O)[nH]c(-c3cc(S(=O)(=O)N4CCN(C)CC4)ccc3OCC)nc12` here?
**A.** The Potency was “inactive”.

**Q.** And the viability [3]?
**A.** Its viability is inactive: 114%.

**Q.** And the Potency [4]?
**A.** The Potency was “inactive”.

**Q.** With `Cc1cccc(Oc2cnc(=O)[nH]c2)c1` as the molecule, how does the Potency [1] read?
**A.** The Potency was “inactive”.

**Q.** What about the Potency [6] of the same molecule?
**A.** The Potency was “inactive”.

**Q.** And the Potency [4]?
**A.** Its Potency is “inactive”.

**Q.** And the Potency [5]?
**A.** The Potency was “inactive”.

**Q.** For `CC(C)c1c2cc(-c3ccnc(NC4CCC(NC5CCOCC5)CC4)n3)ccc2nn1C` (stereo not drawn), which Potency [1] is on record?
**A.** The Potency was “inactive”.

**Q.** And the Potency [4]?
**A.** The Potency was active: 0.235 µM.

**Q.** What about the Potency [5] of the same molecule?
**A.** Its Potency is active: 0.118 µM.
